# Experimental data: publication PMC6919601, “Identification of Plasmodium dipeptidyl aminopeptidase allosteric inhibitors by high throughput screening” (PLoS ONE, 2019)
# The campaign covered roughly 110,000 compounds. About 230 (0.21%) showed an effect of 50% or more. This is one part of the list.
# Molecular target: DPAP1 (Plasmodium falciparum, UniProt Q8IIJ9)
# Experiment: primary screen, percent inhibition; read by cleavage of a fluorogenic dipeptide substrate; higher = more effect of the substance
# Design: species or system P. falciparum D10 trophozoite lysates; single well
# 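Note: 30 min substrate incubation versus DMSO and 10 µM JCP410 controls.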
# DPAP1, sequence (Q8IIJ9 whole entry, looked up): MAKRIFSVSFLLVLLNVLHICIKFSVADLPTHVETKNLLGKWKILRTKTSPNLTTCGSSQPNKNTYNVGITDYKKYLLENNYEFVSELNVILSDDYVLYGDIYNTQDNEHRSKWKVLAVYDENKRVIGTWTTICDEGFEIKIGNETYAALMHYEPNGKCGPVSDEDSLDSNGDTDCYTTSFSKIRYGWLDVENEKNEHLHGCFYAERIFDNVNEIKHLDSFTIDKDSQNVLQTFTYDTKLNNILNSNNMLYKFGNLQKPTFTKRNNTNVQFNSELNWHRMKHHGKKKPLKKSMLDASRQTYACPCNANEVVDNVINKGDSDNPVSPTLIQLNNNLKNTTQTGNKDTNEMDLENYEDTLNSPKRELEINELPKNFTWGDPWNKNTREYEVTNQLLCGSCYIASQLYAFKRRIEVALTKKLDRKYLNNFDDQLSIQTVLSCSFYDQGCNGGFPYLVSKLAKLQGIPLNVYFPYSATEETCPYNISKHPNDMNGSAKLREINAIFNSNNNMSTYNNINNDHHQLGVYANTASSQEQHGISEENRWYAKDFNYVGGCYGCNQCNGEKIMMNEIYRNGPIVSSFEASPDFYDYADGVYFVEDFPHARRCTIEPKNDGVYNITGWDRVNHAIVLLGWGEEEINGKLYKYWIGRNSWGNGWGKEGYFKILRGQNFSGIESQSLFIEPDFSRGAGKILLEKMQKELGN
row,Structure (SMILES),% Inhibition @ 10 uM [%]
1,Cc1c(C(=O)NCC2COc3ccccc3O2)oc2ccc(S(=O)(=O)N3CC(C)CC(C)C3)cc12 (centres unmarked),1.14
2,Cc1cccc(NS(=O)(=O)c2ccc(-c3ccccc3)cc2)c1,-0.507
3,Cc1ccc(CCNC(=O)C2CCCN(c3nnc(-n4cccc4)s3)C2)cc1 (centres unmarked),1.15
4,CCOC(=O)C1CCN(Cc2ccc(OC)c(C)c2C)CC1,-0.197
5,Cc1ccsc1CCN1CSC2=C(C#N)C(c3ccc(Cl)cc3)CC(=O)N2C1 (centres unmarked),51.6
6,CN1C(=O)C(O)(CC(=O)c2ccc3c(c2)CCCC3)c2ccccc21 (centres unmarked),-3.5
7,O=C(O)COC(c1ccccc1F)c1ccccc1F,-7.96
8,CCCN(CCO)Cc1c(F)cccc1F,1.08
9,COc1ccc(C2NC(=O)c3c(sc4c3CCCC4)N2)c(OC)c1 (centres unmarked),0.147
10,C=CCN(Cc1nc(-c2ccc(OC)cc2)no1)C(=O)NC1CCCCC1,-3.49
11,COc1cc(OC)c(OC)cc1CN1CCN(C(=O)c2ccc(F)cc2)CC1,-6.4
12,Cc1c(CN2CCCCC2)c(=O)n(-c2ccccc2)n1C,5.03
13,C#CC(CO)N(CCN(Cc1ccccc1)C(C#C)CO)Cc1ccccc1 (centres unmarked),4.73
14,Cc1cc(-c2ccccc2)nn1C(CC(=O)O)C(=O)O (centres unmarked),-0.467
15,OCCN(Cc1ccccc1)Cc1ccc(Cl)cc1,-6
16,CCN1C(=O)S/C(=C/c2cn(C(C)C)c3ccccc23)C1=O,-5.7
17,CCN(Cc1ccccc1)C(=O)CSc1nnc(C)n2c1cc1sccc12,-10.9
18,CCCc1nnc(NC(=O)CSc2ncc(-c3ccccc3)nn2)s1,4.54
19,N#C/C(=C/c1ccccc1F)c1nc(-c2ccc([N+](=O)[O-])cc2)cs1,0.526
20,CCOc1ccc(C2=C(C=C3C(=O)NC(=O)NC3=O)C(c3ccccc3C)c3ccccc3O2)cc1 (centres unmarked),2.94
21,COc1ccc(-c2cc(C(=O)Nc3ccn(Cc4ccc(C)cc4)n3)no2)cc1,-2.65
22,CCc1ccc(CNC(=O)C2CCN(c3nnc(C)c4c(C)n(-c5ccccc5)nc34)CC2)cc1,7.67
23,COc1ccc(C(=O)N2CCN(c3cccc(Cl)c3)CC2)cc1,-2.6
24,CN(CCNC(=O)Cn1ncc2c3ccccc3nc-2c1O)Cc1ccccc1,-2.74
25,COc1ccccc1N1CCN(C(=O)c2cccc(Cl)c2)CC1,-4.89

row,Structure (SMILES),% Inhibition @ 10 uM [%]
1,CC(C)Cc1ccc(C(C)C(=O)Nc2ccccc2O)cc1 (centres unmarked),-5.2
2,CC(=O)c1ccc(NC(=O)C(Cc2ccccc2)N2C(=O)c3ccccc3C2=O)cc1 (centres unmarked),-4.16
3,COc1ccc(/C=C2/C(=N)N3C(c4ccccc4)=CSC3=NC2=O)cc1Br,1.52
4,Cc1cccc(C)c1N1C(=O)C2C3CCC(C3)C2C1=O (centres unmarked),-7.76
5,N#Cc1c(NC(=O)CN2CCCCC2)sc2c1CCC2,2.38
6,COC(=O)c1sccc1NC(=O)Cc1noc2ccccc12,-6.66
7,Cn1c(=O)c2nc(-c3ccccc3)c(-c3ccccc3)nc2n(C)c1=O,4.03
8,COC(=O)C1=C(C)NC(=O)/C1=C\c1ccccc1OCc1ccccc1,0.222
9,CCCCc1ccc(NC(=O)c2cccnc2Cl)cc1,0.812
10,Cc1cc2nc(O)c(O)nc2cc1S(=O)(=O)N(CC(C)C)CC(C)C,3.06
11,CCN(CCN(C)C)Cc1cccc(Cl)c1Cl,-3.57
12,CCc1ccc(C2CC(c3cccc(OC)c3)Nc3ncnn32)cc1 (centres unmarked),-11
13,Cc1nc(SCc2cccc(F)c2)nc(O)c1C#N,-7.57
14,CCCc1nc2ccccc2c(=O)n1-c1ccc(OC)cc1,-5.23
15,O=C(CCCN1C(=O)CSc2ncccc21)NCCC1=CCCCC1,-0.637
16,CC(C)CSC1=NSC2=NC(=O)/C(=C\c3ccco3)C(=N)N12,-4.65
17,Cc1ccnc(NS(=O)(=O)c2ccc(N)cc2)c1,4.8
18,Cc1cccc(Oc2ccc(NC(=O)CCC(=O)O)cc2)c1,-2.19
19,CCOCCCNc1nc2c(-c3ccccc3)nnn2c2ccccc12,-2.92
20,CC(C)NS(=O)(=O)N1CCN(c2ccncc2S(=O)(=O)N2CCOCC2)CC1,1.72
21,Cc1cc(-c2ccc(C)c(S(=O)(=O)N3CCCN(Cc4ccc(F)cc4)C3)c2)on1,-6.07
22,Cc1ccc2c(CNCc3ccc(C)o3)c(C(=O)O)n(Cc3ccccc3)c2c1,2.6
23,CCc1ccc(NC(=O)CSc2nc(O)cc(-c3ccccc3)n2)cc1,4.75
24,CC(=O)N1CCC(NCc2ccc(Cl)cc2)CC1,-2.21
25,COc1cccc(C(=O)N2c3ccccc3C(Nc3ccccc3)CC2C)c1 (centres unmarked),-0.413
